This passage reports cytotoxicity call and growth inhibition call results from the antibiotic and cytotoxicity screens of Wong et al. (2023).

Some of the results follow.

The subject of one assay is HSkMC. Nature of the assay: cytotoxicity call (relative viability < 0.9). As to conditions: 10 µM.
In the next assay the test system is HepG2. Nature of the assay: cytotoxicity call (relative viability < 0.9). The following applies: 10 µM.
In a further assay the test system is S. aureus RN4220. Briefly: growth inhibition call (relative growth <= 0.2). The following applies: 50 µM.

Take `C[C@@H]1CN([C@H](C)CO)C(=O)c2cccc(NC(=O)C3CCOCC3)c2O[C@@H]1CN(C)Cc1ccc2c(c1)OCO2`: the cytotoxicity call in the assay with HSkMC and with HepG2 was “inactive” throughout. Further, the growth inhibition call in the assay with S. aureus RN4220 is “inactive”.

For `CCOC(=O)[C@H](Cc1c[nH]c2ccccc12)NC(=O)Cn1cc(CN2C(=O)COC[C@H]2c2ccccc2)nn1`, in the assay on HSkMC, the cytotoxicity call was “inactive”. The cytotoxicity call in the assay with HepG2 was “active”. The growth inhibition call in the assay with S. aureus RN4220 is “inactive”.

For `NC(=O)CSc1nnnn1-c1cccc(O)c1`, the cytotoxicity call with HSkMC and in the assay on HepG2 was “inactive” throughout. In the assay with S. aureus RN4220, the growth inhibition call is “inactive”.

For the compound `COc1ccc(NC(=O)Nc2ccc3c(c2)C(=O)N([C@H](C)CO)C[C@H](C)[C@H](CN(C)Cc2ccc(-c4ccccc4)cc2)O3)cc1`, the cytotoxicity call with HSkMC is “inactive”. Further, the cytotoxicity call in the assay on HepG2 was “active”. For the same compound, in the assay on S. aureus RN4220, the growth inhibition call is “inactive”.

`Cn1[nH]cc2c(=O)cccc1-2`: the cytotoxicity call in the assay on HSkMC and with HepG2 was “inactive” each time. Also, the growth inhibition call in the assay with S. aureus RN4220 is “inactive”.

As for `Cc1ccc(S(=O)(=O)Nc2ccc3c(c2)C(=O)N([C@H](C)CO)C[C@@H](C)[C@@H](CN(C)Cc2ccc(-c4ccccc4)cc2)O3)cc1`, the cytotoxicity call in the assay on HSkMC and in the assay on HepG2 was “active” throughout. In addition, the growth inhibition call with S. aureus RN4220 was “inactive”.

Turning to `C[C@@H]1CN([C@@H](C)CO)C(=O)c2cc(Br)cnc2O[C@H]1CN(C)S(=O)(=O)c1ccc(F)cc1`, the cytotoxicity call in the assay with HSkMC and in the assay with HepG2 was “inactive” in each case. Further, the growth inhibition call in the assay on S. aureus RN4220 is “inactive”.

For the compound `O=C(C[C@@H]1CC[C@H]2[C@@H](COC[C@H](O)CN2C(=O)Nc2ccc(F)cc2)O1)NCCCN1CCOCC1`, the cytotoxicity call with HSkMC and with HepG2 was “inactive” in each case. Besides, the growth inhibition call with S. aureus RN4220 is “inactive”.

As for `CC(COc1ccccc1)N(CCCl)Cc1ccccc1.Cl` (centres undefined), the cytotoxicity call in the assay with HSkMC and in the assay on HepG2 was “inactive” each time. The growth inhibition call in the assay on S. aureus RN4220 is “inactive”.

Turning to `CC1C2CCC3C4CC=C5CC(N(C)C)CCC5(C)C4CCC32CN1C` (centres undefined), the cytotoxicity call in the assay with HSkMC was “inactive”. In addition, the cytotoxicity call with HepG2 is “active”. In addition, the growth inhibition call in the assay on S. aureus RN4220 is “inactive”.

Consider `C[C@@H]1CN([C@H](C)CO)C(=O)Cc2cc(NC(=O)Nc3ccc(C(F)(F)F)cc3)ccc2O[C@@H]1CN(C)Cc1ccc(C(F)(F)F)cc1`, for which the cytotoxicity call in the assay on HSkMC and in the assay on HepG2 was “active” in each case. The growth inhibition call with S. aureus RN4220 was “inactive”.

Regarding `O=C1c2ccccc2[C@@]2(Cc3ccccc3N(C3CC3)C2=O)[C@H](c2ccc(CO)cc2)N1Cc1ccccc1`, the cytotoxicity call with HSkMC is “inactive”. The cytotoxicity call in the assay on HepG2 was “active”. In addition, the growth inhibition call in the assay with S. aureus RN4220 is “inactive”.

In the case of `C=C[C@@](C)(O)CC/C=C(\C)C(=O)O[C@@H]1[C@@H]2O[C@]2(C)[C@H]2[C@H](O[C@@H]3O[C@H](CO)[C@@H](O)[C@H](O)[C@H]3O)OC=C[C@@]12O`, the cytotoxicity call with HSkMC and with HepG2 was “inactive” throughout. Besides, the growth inhibition call in the assay on S. aureus RN4220 was “inactive”.

Regarding `COc1ccc(NC(=O)Nc2cccc3c2O[C@@H](CN(C)S(C)(=O)=O)[C@@H](C)CN([C@@H](C)CO)C3=O)cc1`, the cytotoxicity call in the assay on HSkMC and in the assay on HepG2 was “inactive” throughout. Further, in the assay with S. aureus RN4220, the growth inhibition call is “inactive”.

Turning to `C[C@H]1CN([C@@H](C)CO)C(=O)c2ccccc2-c2ccccc2CO[C@H]1CN(C)Cc1ccc(Cl)c(Cl)c1`, the cytotoxicity call in the assay with HSkMC is “active”. Also, the cytotoxicity call in the assay on HepG2 is “inactive”. In addition, the growth inhibition call in the assay with S. aureus RN4220 is “inactive”.

Take `c1ccc(CN(CC2=NCCN2)c2ccccc2)cc1`: the cytotoxicity call with HSkMC and in the assay on HepG2 was “inactive” throughout. The growth inhibition call in the assay on S. aureus RN4220 was “inactive”.

For `C[C@@H]1CCCCO[C@H](CN(C)Cc2ccc3c(c2)OCO3)[C@H](C)CN([C@H](C)CO)C(=O)c2cc(NC(=O)Nc3ccc4c(c3)OCO4)ccc2O1`, the cytotoxicity call in the assay with HSkMC is “inactive”. For the same compound, in the assay with HepG2, the cytotoxicity call is “active”. Moreover, the growth inhibition call with S. aureus RN4220 was “inactive”.

On to `NCC[C@H]1CC[C@@H](NC(=O)Nc2ccc(F)cc2)[C@@H](CO)O1`, for which the cytotoxicity call with HSkMC and with HepG2 was “inactive” each time. Also, in the assay on S. aureus RN4220, the growth inhibition call is “inactive”.

Consider `C[C@H]1CCCCO[C@@H](CN(C)Cc2ccccc2)[C@@H](C)CN([C@@H](C)CO)C(=O)c2cc(NC(=O)CCC(F)(F)F)ccc2O1`, for which the cytotoxicity call in the assay with HSkMC and in the assay with HepG2 was “inactive” in each case. For the same compound, the growth inhibition call with S. aureus RN4220 was “inactive”.

As for `Cc1ccc(S(=O)(=O)N2C[C@@H](O)COC[C@H]3O[C@H](CC(=O)NCc4ccc(Cl)cc4)CC[C@@H]32)cc1`, the cytotoxicity call in the assay on HSkMC and in the assay on HepG2 was “inactive” each time. Besides, the growth inhibition call in the assay on S. aureus RN4220 was “inactive”.

As to `COCCOC(=O)N1C(=O)[C@@]2(c3cc(C#Cc4ccc(OC)cc4)ccc31)[C@H](C(=O)NC[C@H](O)c1ccccc1)[C@H]1C(=O)O[C@H](c3ccccc3)[C@H](c3ccccc3)N1[C@@H]2c1ccc(OCCO)cc1`, the cytotoxicity call in the assay on HSkMC and in the assay with HepG2 was “inactive” each time. Moreover, in the assay with S. aureus RN4220, the growth inhibition call is “inactive”.

For `C[C@H](CO)N1C[C@H](C)[C@@H](CN(C)C(=O)Nc2ccc(F)cc2)Oc2cc(C#CC3(O)CCCC3)ccc2S1(=O)=O`, the cytotoxicity call in the assay with HSkMC and with HepG2 was “inactive” in each case. Further, the growth inhibition call in the assay on S. aureus RN4220 is “inactive”.

In the case of `Cc1cccc(/C=C(\CCC(=O)O)c2nc3ccccc3s2)c1`, the cytotoxicity call in the assay on HSkMC and in the assay with HepG2 was “inactive” throughout. Further, the growth inhibition call in the assay on S. aureus RN4220 is “inactive”.

For the compound `C[C@H]1CN([C@@H](C)CO)C(=O)c2cc(NC(=O)Cc3ccccc3)ccc2O[C@H]1CN(C)S(C)(=O)=O`, the cytotoxicity call in the assay with HSkMC and with HepG2 was “inactive” in each case. Besides, the growth inhibition call with S. aureus RN4220 was “inactive”.

Turning to `CO[C@H]1CN(C)C(=O)c2ccc(NC(=O)Nc3cccc(F)c3)cc2OC[C@@H](C)N(C(=O)Nc2c(C)noc2C)C[C@@H]1C`, the cytotoxicity call with HSkMC and in the assay on HepG2 was “inactive” each time. In addition, in the assay on S. aureus RN4220, the growth inhibition call was “inactive”.

In the case of `C[C@@H]1CCCCO[C@@H](CN(C)S(=O)(=O)c2ccccc2)[C@@H](C)CN([C@H](C)CO)C(=O)c2cc(NC(=O)Nc3ccccc3)ccc2O1`, the cytotoxicity call with HSkMC and in the assay on HepG2 was “inactive” in each case. For the same compound, the growth inhibition call in the assay on S. aureus RN4220 was “inactive”.

For `COC(=O)Nc1nc2ccc(S(=O)c3ccccc3)cc2[nH]1` (centres undefined), in the assay with HSkMC, the cytotoxicity call was “inactive”. In addition, the cytotoxicity call in the assay on HepG2 was “active”. Further, in the assay with S. aureus RN4220, the growth inhibition call was “inactive”.

In the case of `C[C@H](CO)N1C[C@H](C)[C@H](CN(C)S(=O)(=O)c2ccc3ccccc3c2)OCc2cnnn2CCCC1=O`, the cytotoxicity call in the assay on HSkMC (human skeletal muscle cells) and with HepG2 was “inactive” throughout. Further, in the assay with S. aureus RN4220, the growth inhibition call is “inactive”.
